Test results reported in US6753151 (KUDOS PHARMACEUTICALS, dated 2004).

How the values were obtained:
[1] = molecular target: T1, His-tagged Ku80 (full length, N-terminal hexa-histidine tag, in biotinylated bacterial lysate) (human, UniProt P13010, biotinylated (crude lysate biotinylated at low levels; sites not given)); assay: GST pull-down from biotinylated E. coli lysate containing His-Ku80; streptavidin-HRP blot
T1 construct: Expressed at low levels in E. coli BL21 pLysS; used as crude, biotinylated soluble lysate; also called His-Ku80; full-length Ku80; not shown: N-terminal hexa-Histidine tag and vector residues from pET30a
Method: (§1) Approximately 1 mg of biotinylated bacterial extract (containing His-Ku70 or His-Ku80) was diluted 2-fold in buffer (50 mM Tris pH 8.0, 250 mM NaCl, 0.1% β-mercaptoethanol, 0.1% Triton X-100, Boehringer Complete Protease Inhibitors) and incubated for 3 hours at 4° C. with 1–2 ug of GST-Ku80, GST-Ku70, or deletion derivative thereof, immobilised on beads. The beads were washed seven times in NETN buffer (180 mM NaCl, 25 mM EDTA, 20 mM Tris pH 8.0, 0.5% NP-40), boiled in SDS gel-loading buffer and half the sample subjected to polyacrylamide gel electrophoresis. Proteins were subsequently transferred to nitrocellulose membrane. Membranes were probed with streptavidin conjugated to horseradish peroxidase (GiboBRL), and visualised by ECL (Pierce) and exposure to film.
(§2) Analysis of Interactions Between Bacterially-expressed Ku70 and Ku80 Deletion Derivatives In a complementary approach to the yeast 2-hybrid technique, the inventors used a "pull-down" assay to detect interactions between recombinant deletion derivatives of the two Ku subunits. To first establish the utility of this approach, they assayed for interaction between full-length Ku70 and Ku80 in this system. […] Interacting proteins were detected by probing these western blots with streptavidin that was conjugated to horse radish peroxidase (HRP). […]

[2] = molecular target: T2, His-tagged Ku70 (full length, N-terminal hexa-histidine tag, in biotinylated bacterial lysate) (human, UniProt P12956, biotinylated (crude lysate biotinylated at low levels; sites not given)); assay: GST pull-down from biotinylated E. coli lysate containing His-Ku70; streptavidin-HRP blot
T2 construct: Expressed at low levels in E. coli BL21 pLysS; used as crude, biotinylated soluble lysate; also called His-Ku70; full-length Ku70; not shown: N-terminal hexa-Histidine tag and vector residues from pET30a
Method: as §1, §2

[3] = molecular target: T3, DNA-dependent protein kinase catalytic subunit (DNA-PKcs), human, from HeLa cell nuclear extract (human, UniProt P78527); assay: GST pull-down of homogeneous DNA-PKcs, silver stain
T3 construct: mature; Used either within crude HeLa nuclear extract or as an essentially homogeneous preparation (about 1 Ku per 840 DNA-PKcs molecules); also called purified DNA-PKcs; homogeneous DNA-PKcs
T3 sequence (P78527 whole entry): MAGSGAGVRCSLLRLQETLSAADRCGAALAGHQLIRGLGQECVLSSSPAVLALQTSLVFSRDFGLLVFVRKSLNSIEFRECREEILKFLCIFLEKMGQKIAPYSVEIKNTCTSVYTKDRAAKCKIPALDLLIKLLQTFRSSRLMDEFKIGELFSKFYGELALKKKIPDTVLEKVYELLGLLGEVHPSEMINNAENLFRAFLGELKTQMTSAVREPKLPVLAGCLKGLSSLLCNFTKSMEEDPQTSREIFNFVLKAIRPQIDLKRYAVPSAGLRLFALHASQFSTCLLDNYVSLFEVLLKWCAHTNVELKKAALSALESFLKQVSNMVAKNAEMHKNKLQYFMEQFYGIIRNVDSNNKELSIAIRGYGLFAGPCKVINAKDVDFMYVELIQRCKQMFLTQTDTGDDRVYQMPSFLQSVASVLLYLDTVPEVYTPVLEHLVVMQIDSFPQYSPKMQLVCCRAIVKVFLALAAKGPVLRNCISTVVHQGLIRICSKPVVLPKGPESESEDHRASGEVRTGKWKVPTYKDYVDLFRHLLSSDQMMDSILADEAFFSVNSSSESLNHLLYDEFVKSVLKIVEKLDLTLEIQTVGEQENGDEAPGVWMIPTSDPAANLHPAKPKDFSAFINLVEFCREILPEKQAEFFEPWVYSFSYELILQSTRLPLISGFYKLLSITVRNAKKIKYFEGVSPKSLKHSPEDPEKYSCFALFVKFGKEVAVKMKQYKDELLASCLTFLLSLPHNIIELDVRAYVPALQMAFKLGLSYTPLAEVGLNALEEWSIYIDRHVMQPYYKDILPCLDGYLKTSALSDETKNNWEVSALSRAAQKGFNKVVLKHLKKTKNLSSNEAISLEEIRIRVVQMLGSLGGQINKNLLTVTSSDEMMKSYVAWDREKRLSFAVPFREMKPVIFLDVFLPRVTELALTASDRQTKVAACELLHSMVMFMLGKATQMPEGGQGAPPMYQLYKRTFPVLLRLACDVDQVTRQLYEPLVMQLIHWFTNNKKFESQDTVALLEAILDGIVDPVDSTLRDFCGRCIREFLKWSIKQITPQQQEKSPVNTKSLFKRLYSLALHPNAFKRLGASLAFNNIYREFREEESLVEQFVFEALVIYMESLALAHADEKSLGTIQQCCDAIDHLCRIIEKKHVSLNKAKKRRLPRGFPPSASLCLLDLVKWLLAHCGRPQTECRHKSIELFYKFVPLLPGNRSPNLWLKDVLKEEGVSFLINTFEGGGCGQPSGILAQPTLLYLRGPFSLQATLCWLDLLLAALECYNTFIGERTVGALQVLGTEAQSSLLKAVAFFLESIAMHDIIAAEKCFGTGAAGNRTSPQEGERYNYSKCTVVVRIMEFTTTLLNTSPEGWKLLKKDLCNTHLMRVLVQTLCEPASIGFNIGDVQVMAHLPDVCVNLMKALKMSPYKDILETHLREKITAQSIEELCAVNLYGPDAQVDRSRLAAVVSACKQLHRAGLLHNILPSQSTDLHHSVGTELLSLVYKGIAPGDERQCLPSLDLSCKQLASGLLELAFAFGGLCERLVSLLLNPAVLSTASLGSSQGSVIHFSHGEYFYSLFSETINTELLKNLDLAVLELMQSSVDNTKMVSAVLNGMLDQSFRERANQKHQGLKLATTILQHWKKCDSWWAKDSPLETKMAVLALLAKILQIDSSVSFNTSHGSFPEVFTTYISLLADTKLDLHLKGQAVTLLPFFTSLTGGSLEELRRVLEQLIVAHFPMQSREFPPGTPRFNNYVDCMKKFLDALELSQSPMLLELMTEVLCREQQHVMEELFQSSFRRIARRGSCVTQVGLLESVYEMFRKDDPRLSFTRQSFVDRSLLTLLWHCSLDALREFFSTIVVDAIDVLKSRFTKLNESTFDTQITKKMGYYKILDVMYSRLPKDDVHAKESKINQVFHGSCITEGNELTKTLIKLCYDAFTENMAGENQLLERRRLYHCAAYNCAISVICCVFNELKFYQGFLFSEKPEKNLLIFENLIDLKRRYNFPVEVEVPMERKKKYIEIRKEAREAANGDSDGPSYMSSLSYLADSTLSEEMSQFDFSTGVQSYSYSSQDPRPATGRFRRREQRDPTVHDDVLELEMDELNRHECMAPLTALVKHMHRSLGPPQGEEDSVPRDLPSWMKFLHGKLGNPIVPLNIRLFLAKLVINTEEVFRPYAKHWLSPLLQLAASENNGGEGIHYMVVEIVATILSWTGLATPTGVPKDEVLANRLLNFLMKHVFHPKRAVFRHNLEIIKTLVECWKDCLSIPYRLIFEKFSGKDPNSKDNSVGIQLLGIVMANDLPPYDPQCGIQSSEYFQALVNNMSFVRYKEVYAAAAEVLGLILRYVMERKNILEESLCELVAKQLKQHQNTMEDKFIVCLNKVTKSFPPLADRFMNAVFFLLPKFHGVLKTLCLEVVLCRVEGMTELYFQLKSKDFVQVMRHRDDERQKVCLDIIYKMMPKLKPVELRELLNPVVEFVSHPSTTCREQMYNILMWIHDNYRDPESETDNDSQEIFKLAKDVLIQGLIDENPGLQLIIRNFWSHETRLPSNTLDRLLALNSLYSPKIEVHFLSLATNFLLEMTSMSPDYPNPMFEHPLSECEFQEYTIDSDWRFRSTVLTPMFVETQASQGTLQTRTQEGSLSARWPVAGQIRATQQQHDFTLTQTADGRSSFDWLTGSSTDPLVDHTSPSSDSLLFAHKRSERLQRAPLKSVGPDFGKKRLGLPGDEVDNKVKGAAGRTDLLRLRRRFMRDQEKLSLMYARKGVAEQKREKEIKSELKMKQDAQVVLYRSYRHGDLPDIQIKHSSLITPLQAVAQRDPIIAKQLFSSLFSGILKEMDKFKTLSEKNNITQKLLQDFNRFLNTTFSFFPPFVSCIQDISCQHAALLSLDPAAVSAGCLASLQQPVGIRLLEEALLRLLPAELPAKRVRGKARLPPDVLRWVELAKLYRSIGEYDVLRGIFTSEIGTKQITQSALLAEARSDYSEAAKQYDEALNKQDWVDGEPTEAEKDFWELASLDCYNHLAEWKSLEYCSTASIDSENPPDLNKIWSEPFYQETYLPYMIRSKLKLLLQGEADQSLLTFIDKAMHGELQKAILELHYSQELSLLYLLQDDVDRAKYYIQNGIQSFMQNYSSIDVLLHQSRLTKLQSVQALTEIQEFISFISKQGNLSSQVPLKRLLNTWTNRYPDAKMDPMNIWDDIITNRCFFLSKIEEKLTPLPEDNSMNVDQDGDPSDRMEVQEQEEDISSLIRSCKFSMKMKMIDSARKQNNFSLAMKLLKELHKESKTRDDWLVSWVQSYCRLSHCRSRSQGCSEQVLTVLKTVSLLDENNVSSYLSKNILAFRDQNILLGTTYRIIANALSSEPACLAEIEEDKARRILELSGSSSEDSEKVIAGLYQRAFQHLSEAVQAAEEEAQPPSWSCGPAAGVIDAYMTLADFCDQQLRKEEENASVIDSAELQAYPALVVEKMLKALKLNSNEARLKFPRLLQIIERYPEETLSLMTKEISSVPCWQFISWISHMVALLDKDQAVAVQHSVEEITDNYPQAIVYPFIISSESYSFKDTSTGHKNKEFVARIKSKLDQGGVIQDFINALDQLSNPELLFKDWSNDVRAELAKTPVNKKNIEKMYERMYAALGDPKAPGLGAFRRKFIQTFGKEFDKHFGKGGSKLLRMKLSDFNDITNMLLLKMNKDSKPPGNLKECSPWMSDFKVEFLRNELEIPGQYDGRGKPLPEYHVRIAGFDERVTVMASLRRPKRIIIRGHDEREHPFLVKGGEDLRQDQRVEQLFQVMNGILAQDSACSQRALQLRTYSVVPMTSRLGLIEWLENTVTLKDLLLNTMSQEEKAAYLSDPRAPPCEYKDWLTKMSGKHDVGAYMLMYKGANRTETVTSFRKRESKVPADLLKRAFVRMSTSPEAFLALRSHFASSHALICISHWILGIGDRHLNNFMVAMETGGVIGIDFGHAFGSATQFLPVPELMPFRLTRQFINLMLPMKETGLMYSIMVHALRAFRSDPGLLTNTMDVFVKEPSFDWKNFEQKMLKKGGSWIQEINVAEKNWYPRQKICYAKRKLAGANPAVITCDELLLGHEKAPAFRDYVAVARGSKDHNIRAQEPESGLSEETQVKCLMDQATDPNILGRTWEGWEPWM

T2 sequence (P12956 2-609): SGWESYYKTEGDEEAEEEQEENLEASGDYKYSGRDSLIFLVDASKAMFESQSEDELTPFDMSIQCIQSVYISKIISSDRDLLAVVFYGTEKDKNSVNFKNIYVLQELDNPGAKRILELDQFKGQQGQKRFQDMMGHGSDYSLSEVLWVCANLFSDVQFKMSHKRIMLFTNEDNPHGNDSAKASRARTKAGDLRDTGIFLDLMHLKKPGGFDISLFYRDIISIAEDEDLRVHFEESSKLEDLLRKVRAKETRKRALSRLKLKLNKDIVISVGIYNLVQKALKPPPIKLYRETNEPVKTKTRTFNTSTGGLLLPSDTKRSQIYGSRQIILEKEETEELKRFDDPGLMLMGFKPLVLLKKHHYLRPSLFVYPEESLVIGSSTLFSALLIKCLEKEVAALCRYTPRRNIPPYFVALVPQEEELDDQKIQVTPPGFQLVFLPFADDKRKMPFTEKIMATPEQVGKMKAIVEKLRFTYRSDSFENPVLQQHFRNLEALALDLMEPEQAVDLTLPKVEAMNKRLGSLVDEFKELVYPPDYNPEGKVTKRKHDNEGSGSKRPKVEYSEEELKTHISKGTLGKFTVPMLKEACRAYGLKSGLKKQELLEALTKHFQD

B1: GST alone (other)
chain: not shown
notes: Control protein on glutathione agarose beads; also called beads containing only GST
binding result [1]: no binding | binding result [2]: no binding | binding result [3]: no binding (tested: 50 mM to 150 mM KCl)
